From PubChem BioAssay AID588342 (National Center for Advancing Translational Sciences (NCATS), 2011)
Screen size: about 360,000 compounds; about 25,000 (6.9%) were called active. This list was built around the results that the source calls inconclusive (neither active nor inactive); the mix of calls is not that of the screen. Calls come from the whole dose curve; as a rule, active = well fitted inhibition curve with a large enough effect; inconclusive = small, poorly fitted or top-dose-only effect; inactive = flat fitted curve, though single readings scatter. Potencies of inconclusive entries are doubtful fits and often do not repeat.

biological target: Luciferin 4-monooxygenase (Photinus pyralis) (UniProt P08659); assay: qHTS profiling assay for firefly luciferase inhibitor/activator using purifed enzyme and Km concentrations of substrates (counterscreen for miR-21 project); settings: purified FLuc, luminescence inhibition; activity change, negative = inhibition: at 57.5 µM (top of the series); note: nearly all actives have a fitted effect of over 55% in size;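 for activity change, negative = inhibition: plate controls were vehicle for no effect and reference inhibitor for full effect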
Method in brief: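 Purified P. pyralis luciferase (10nM final) with 10uM D-luciferin and 10uM ATP (Km levels) in 50mM Tris acetate pH 7.5, 10mM Mg acetate, 0.01% Tween-20, 0.05% BSA; qHTS 6-point titration, ~60 µM downward; luminescence read.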
Potency is the fitted concentration of half-maximal effect; tags give direction and shape of the fitted curve.

UniProt P08659, sequence (P08659 whole entry, looked up): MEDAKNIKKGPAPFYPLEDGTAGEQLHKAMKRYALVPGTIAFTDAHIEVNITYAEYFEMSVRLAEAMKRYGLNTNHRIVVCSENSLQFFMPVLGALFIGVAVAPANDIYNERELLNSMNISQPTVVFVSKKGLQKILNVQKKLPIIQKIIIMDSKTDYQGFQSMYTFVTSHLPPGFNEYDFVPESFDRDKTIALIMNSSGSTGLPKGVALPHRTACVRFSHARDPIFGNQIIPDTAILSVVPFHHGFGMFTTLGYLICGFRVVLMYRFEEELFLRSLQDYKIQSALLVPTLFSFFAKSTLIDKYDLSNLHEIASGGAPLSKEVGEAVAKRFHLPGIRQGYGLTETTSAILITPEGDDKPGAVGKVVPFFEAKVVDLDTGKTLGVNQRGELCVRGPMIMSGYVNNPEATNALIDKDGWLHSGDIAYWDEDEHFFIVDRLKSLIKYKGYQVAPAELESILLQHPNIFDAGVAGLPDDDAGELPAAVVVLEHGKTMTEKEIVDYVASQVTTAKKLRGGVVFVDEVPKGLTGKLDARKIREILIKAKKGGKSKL

Row | SMILES | Potency | activity change, negative = inhibition
1 | COC(=O)c1cccc(NC(=O)Cc2coc3cc(OC)ccc23)c1 | active: 16.9 µM | 
2 | O=C(NC(O)C(=O)c1ccccc1)c1cccs1 (configuration not stated) | inconclusive: 19 µM [inhibitor, single point] | 
3 | Cc1nc(Nc2ccccc2)sc1C(=O)c1ccccc1 | active: 21.3 µM | 
4 | COc1ccccc1CNC(=O)Cn1ncc2c(=O)oc3ccc(C)cc3c21 |  | inactive: -0.113%
5 | Cc1ccc(CSc2nnc(NC(=O)C3COc4ccccc4O3)s2)cc1 (configuration not stated) | inconclusive: 26.9 µM [inhibitor, partial curve, poor fit] | 
6 | O=C(Cc1cccs1)N/N=C/C=C\c1ccco1 | inconclusive: 26.9 µM [inhibitor, single point] | 
7 | Cc1c(CC(=O)NCC(=O)O)c(=O)oc2cc3c(cc12)CCC(C)(C)O3 | inconclusive: 21.3 µM [inhibitor, partial curve, poor fit] | 
8 | CCOC(=O)c1ccc(Nc2c(-c3ccc(O)cc3)nc3nc[nH]n23)cc1 | inconclusive: 23.9 µM [inhibitor, partial curve, poor fit] | 
9 | COC(=O)c1ccc(N2NC(=O)/C(=C/c3cc(OC)c(O)c(OC)c3)C2=O)cc1 | active: 8.49 µM | 
10 | CC(C)(C)c1ccc(NC(=O)COC(=O)C2(C)CC2(Cl)Cl)cc1 (configuration not stated) | inconclusive: 37.9 µM [inhibitor, single point] | 
11 | NCCc1nnc(SCc2ccc(Cl)cc2)o1 |  | inactive: 1.77%
12 | N=C1CCCN1CC(=O)c1ccc(Br)cc1 |  | inactive: -1.31%
13 | CCN(CC)c1ncnc2c1sc1nc(C)cc(C)c12 | inconclusive: 23.9 µM [inhibitor, partial curve] | 
14 | Cc1ccc(Nc2ncccc2C(N)=O)cc1[N+](=O)[O-] | active: 12 µM | 
15 | Cc1cc(NC(=O)C2COc3ccccc3O2)no1 (configuration not stated) | inconclusive: 30.1 µM [inhibitor, partial curve, poor fit] | 
16 | O=C(Nc1ccc(F)cc1F)C1CCCN(c2ncnc3c2nc2n3CCCCC2)C1 (configuration not stated) |  | inactive: 4.7%
17 | CCN(CC)C(=S)SSC(=S)N(CC)CC | inconclusive: 21.3 µM [inhibitor, partial curve] | 
18 | Cc1nn(C(=O)CNC(=O)c2ccccc2)c(C)c1C |  | inactive: -13.9%
19 | CCOC(=O)CSc1nc2cc3c(cc2c(=O)n1CCCC(=O)NCc1ccc2c(c1)OCO2)OCO3 |  | inactive: 4.92%
20 | CCCOc1ccccc1C(=O)N1CCC(c2nc3ccccc3s2)CC1 | inconclusive: 15.1 µM [inhibitor, partial curve, poor fit] | 
21 | COc1ccc(Nc2nnc(SC(C(=O)Nc3ccc(OC)c(Cl)c3)c3ccccc3)s2)cc1 (configuration not stated) | inconclusive: 13.5 µM [inhibitor, single point] | 
22 | CC(=O)c1c(C)[nH]c(C(=O)Nc2nc(-c3ccc(Cl)cc3)cs2)c1C |  | inactive: -6.64%
23 | COC(=O)CN1C(=O)CSc2ccc(S(=O)(=O)Nc3ccc(Cl)cc3C)cc21 | inconclusive: 37.9 µM [inhibitor, partial curve, poor fit] | 
24 | COc1cc(C)ccc1OCc1cc(C(=O)NCCN2CCCC(O)C2)no1 (configuration not stated) | inconclusive: 37.9 µM [inhibitor, partial curve, poor fit] | 

Row | SMILES | Potency | activity change, negative = inhibition
25 | N#C/C(=C\c1ccc(N2CCOCC2)o1)c1ccccc1 | active: 2.13 µM | 
26 | CC(=N)c1c(O)c2ccccc2oc1=O | inconclusive: 37.9 µM [inhibitor, single point] | 
27 | CCOc1ccc(N(CC(=O)NC2CCCCC2)C(=O)CSc2nnc(COc3ccccc3)o2)cc1 |  | inactive: -0.464%
28 | Cc1cc(N2CCOCC2)nc2ccc(NC(=S)N3CCCCC3C)cc12 (configuration not stated) | inconclusive: 37.9 µM [inhibitor, partial curve, poor fit] | 
29 | COc1ccc(/C=C/C(=O)C2C(=O)C=C(C)OC2=O)cc1O (configuration not stated) | active: 6.01 µM | 
30 | CCOc1ccc(C(=O)Nc2ccc3c(c2)OCCO3)cc1[N+](=O)[O-] | inconclusive: 21.3 µM [inhibitor, partial curve] | 
31 | CC(C)Cc1nn2c(=O)cc(COC(=O)c3cccc(NC(=O)CCc4ccccc4)c3)nc2s1 |  | inactive: -0.48%
32 | CC1CCCCC1NC(=O)CSc1ccc([N+](=O)[O-])cc1 (configuration not stated) |  | inactive: -1.28%
33 | Cc1ccc(C(=O)CSc2ccccc2C(=O)O)cc1 | active: 4.26 µM | 
34 | CN(C)c1ccc(/C=N/NC(=O)CNC(=O)c2ccco2)cc1 | inconclusive: 37.9 µM [inhibitor, single point] | 
35 | COC(=O)c1ccccc1-c1ccc(/C=N/NC(=O)c2cc3ccccc3o2)o1 | inconclusive: 33.8 µM [inhibitor, single point] | 
36 | CC(NC(=O)c1ccco1)C(=O)Nc1nc(-c2ccccn2)cs1 (configuration not stated) |  | inactive: 1.86%
37 | C=CCc1c(C)nc2nc(SCC(=O)Nc3ccccc3CC)nn2c1C |  | inactive: 5.72%
38 | COc1ccc(NC(=O)c2ccc(C)cc2)c(OC)c1 | active: 5.36 µM | 
39 | CCC(CC)C(=O)Nc1cccc(/C(C)=N\NC(=O)c2ccc(C)s2)c1 | inconclusive: 2.69 µM [inhibitor, partial curve, poor fit] | 
40 | CCn1cc(SCC(=O)Nc2cc(C)on2)c2ccccc21 |  | inactive: -6.78%
41 | O=[N+]([O-])c1ccccc1S(=O)(=O)Nc1cccc(-c2ccc(N3CCCC3)nn2)c1 | active: 16.9 µM | 
42 | Cc1cc(C)c2cc3c(N)c(C(=O)N4CCOCC4)sc3nc2c1 | active: 10.7 µM | 
43 | CCc1ccc(C(=O)c2cn(CC(=O)Nc3ccc(F)cc3)c3cc4c(cc3c2=O)OCO4)cc1 |  | inactive: -1.74%
44 | Cc1ncoc1C(=O)Nc1ncc([N+](=O)[O-])s1 | active: 6.75 µM | 
45 | Cc1onc(-c2ccccc2Cl)c1C(=O)Nc1nnc(-c2ccc(F)cc2)s1 | inconclusive: 37.9 µM [inhibitor, single point] | 
46 | Cc1ccc(NC(=O)c2ccc(NS(=O)(=O)/C=C/c3ccccc3)cc2)nc1 | inconclusive: 30.1 µM [inhibitor, single point] | 
47 | CCc1ccccc1NC(=O)CN(C)C(=O)Cn1cc(C(F)(F)F)cc(Cl)c1=O |  | inactive: -0.203%
48 | Cc1ccc(NNC(=S)Nc2ccc(C(C)C)cc2)c(C)c1 | inconclusive: 37.9 µM [inhibitor, partial curve, poor fit] | 

Row | SMILES | Potency | activity change, negative = inhibition
49 | C/C(=N/NC(=O)c1ccoc1C)c1cccc(NC(=O)C2CC2)c1 | inconclusive: 16.9 µM [inhibitor, partial curve, poor fit] | 
50 | CN(/N=C/c1cccnc1)c1cnc2ccccc2n1 | active: 5.36 µM | 
51 | COCCN(C(=O)CNC(=O)c1ccco1)C(C(=O)NC1CCCC1)c1cccs1 (configuration not stated) | inconclusive: 26.9 µM [inhibitor, single point] | 
52 | O=C(Nc1nccs1)c1cc(-c2ccccc2)nc2ccccc12 | inconclusive: 33.8 µM [inhibitor, partial curve, poor fit] | 
53 | O=C(Nc1ccc(Cl)cc1)N(C1=NCCC1)c1ccc(OC(F)F)cc1 | inconclusive: 37.9 µM [inhibitor, single point] | 
54 | COc1ccc(-c2nc(SCC(=O)NCCCc3ccccc3)n[nH]2)cc1 | inconclusive: 26.9 µM [inhibitor, single point] | 
55 | COc1ccc(NC(=O)CCc2c(C)nn(-c3ccc(N4CCOCC4)nn3)c2C)cc1Cl | active: 21.3 µM | 
56 | COc1cccc(/C=N/NC(=O)CO/N=C(\C)c2cccs2)c1OC | inconclusive: 37.9 µM [inhibitor, partial curve, poor fit] | 
57 | CC(C)(C)c1ccc(C(=O)Nc2ccccc2C(=O)OCc2cc(=O)n3ccsc3n2)cc1 | inconclusive: 3.38 µM [inhibitor, full curve] | 
58 | O=C(COc1ccccc1)Nc1sc2c(c1C(=O)NCc1cccnc1)CCCC2 | inconclusive: 23.9 µM [inhibitor, partial curve, poor fit] | 
59 | Fc1c(F)c(F)c(CSc2nc3ccccc3[nH]2)c(F)c1F | inconclusive: 23.9 µM [inhibitor, partial curve, poor fit] | 
60 | COCCNC(=O)/C(C#N)=C/c1ccc(OCc2ccccc2)cc1 | inconclusive: 26.9 µM [inhibitor, single point] | 
61 | COc1ccc(NC(=O)CSc2ncn(-c3ccccc3)n2)cc1Cl | inconclusive: 37.9 µM [inhibitor, partial curve, poor fit] | 
62 | CCOc1ccccc1NC(=O)Nc1ccc(OC)nc1 | inconclusive: 30.1 µM [inhibitor, single point] | 
63 | CN(C)S(=O)(=O)N1CCC(Oc2cccc(C(=O)NCCC3=CCCCC3)c2)CC1 | inconclusive: 23.9 µM [inhibitor, partial curve, poor fit] | 
64 | COc1cccc(/C=C/C(=O)Nc2ccc(N3CCOCC3)cc2)c1OC | inconclusive: 26.9 µM [inhibitor, single point] | 
65 | COc1ccc(N(C)C(=O)NCc2noc3ccc(C)cc23)c(OC)c1 |  | inactive: 1.26%
66 | Cc1cc(C)c2c(=O)cc(CSCC(=O)Nc3nnc(C)s3)[nH]c2c1 |  | inactive: -9.58%
67 | COc1cc(OC)cc(C(=O)Nc2cc(-c3cn4cccnc4n3)ccc2C)c1 | inconclusive: 3.01 µM [inhibitor, partial curve, poor fit] | 
68 | CCc1sc(NC(=O)C(C)C)nc1-c1ccccc1 |  | inactive: -1.92%
69 | O=C(/C=C/c1ccc(Cl)c(Cl)c1)NCCCn1ccnc1 | inconclusive: 37.9 µM [inhibitor, partial curve, poor fit] | 
70 | COc1ccc(/C=N/NC(=O)CSCC(=O)Nc2ccccc2)cc1 | inconclusive: 26.9 µM [inhibitor, partial curve] | 
71 | COc1ccc(/C=N/NC(=O)c2nn(C)cc2Br)cc1CSCc1ccco1 | inconclusive: 21.3 µM [inhibitor, single point] | 
72 | CC1(C)Cc2c(ccc3ccccc23)C(=O)N1 | inconclusive: 30.1 µM [inhibitor, single point] | 
